Source: PubChem BioAssay AID1468 (National Center for Advancing Translational Sciences (NCATS), 2008)
The whole screen tested about 280,000 compounds, of which about 1,100 (0.39%) were called active. Inconclusive results, whose numbers are uncertain, are shown with a selection of clear calls. Calls follow the shape of the dose curve; as a rule, active = well fitted inhibition curve with a large enough effect; inconclusive = small, poorly fitted or top-dose-only effect, or effect the other way; inactive = flat fitted curve, though single readings scatter. No potency is given beside an inconclusive call; the fits are too rough.

What follows are compounds tested against Microtubule-associated protein tau (Homo sapiens) (UniProt P10636) (assay: qHTS for Inhibitors of Tau Fibril Formation, Fluorescence Polarization). Conditions: K18 P301L tau heparin fibrillization, Alexa594 FP, 6 h; series mostly up to 57.7 µM.
UniProt P10636, sequence (P10636 whole entry, looked up): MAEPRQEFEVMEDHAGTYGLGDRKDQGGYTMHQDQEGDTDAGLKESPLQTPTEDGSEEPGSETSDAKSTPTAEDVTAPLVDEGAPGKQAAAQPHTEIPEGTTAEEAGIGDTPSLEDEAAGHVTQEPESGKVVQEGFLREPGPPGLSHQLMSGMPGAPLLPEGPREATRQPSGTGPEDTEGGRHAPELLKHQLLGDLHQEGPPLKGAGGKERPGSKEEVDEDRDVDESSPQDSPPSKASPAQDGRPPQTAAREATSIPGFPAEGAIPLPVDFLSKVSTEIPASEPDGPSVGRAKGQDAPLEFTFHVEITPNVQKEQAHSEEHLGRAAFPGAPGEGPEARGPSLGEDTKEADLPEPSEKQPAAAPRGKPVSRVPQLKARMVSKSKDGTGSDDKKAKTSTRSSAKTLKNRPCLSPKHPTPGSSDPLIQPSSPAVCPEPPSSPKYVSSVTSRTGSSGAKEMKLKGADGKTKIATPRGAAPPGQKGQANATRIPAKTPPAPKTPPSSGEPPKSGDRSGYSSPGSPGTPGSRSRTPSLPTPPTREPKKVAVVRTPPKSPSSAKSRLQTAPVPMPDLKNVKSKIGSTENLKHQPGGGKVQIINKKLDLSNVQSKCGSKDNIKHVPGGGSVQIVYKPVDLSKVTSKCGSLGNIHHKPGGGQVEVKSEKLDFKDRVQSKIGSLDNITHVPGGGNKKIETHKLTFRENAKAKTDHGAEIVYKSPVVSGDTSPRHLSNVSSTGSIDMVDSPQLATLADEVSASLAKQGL
Procedure, shortened: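 Recombinant K18 P301L […], labeled with Alexa 594 at 0.24 uM over 15 uM unlabeled; heparin inducer 20 uM final; 37 C, 6 hr; FP endpoint.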
Also: nearly all actives have a fitted effect of over 55% in size.
Potency is read from the fitted curve at half-maximal effect; tags tell the direction and shape of the fitted curve.

| Compound | Potency |
| --- | --- |
| COc1cc(Br)cc(CN2CCN(C/C=C/c3ccccc3)CC2)c1O | inconclusive [activator, single point] |
| Cc1ccc2nc(NC(=O)CSc3nc4ccccc4o3)sc2c1 | inconclusive [inhibitor, full curve, poor fit] |
| CCOc1cc(CNC(=O)c2ccc(NC(=O)c3nsc4ccccc34)cc2)ccc1OC | inconclusive [inhibitor, partial curve] |
| CN1C2C=C3C(C#N)=C(N)C(C#N)(C#N)[C@H](c4c(F)cccc4F)[C@H]3C1CC2 (some centres not stated) | inconclusive [inhibitor, partial curve] |
| CCOc1cc2[nH]c(=S)n(CCC(=O)NCc3ccc(OC)cc3)c(=O)c2cc1OCC | inconclusive [inhibitor, single point] |
| CCOC(=O)c1c(NC(C)=O)c2c3c(sc2n1Cc1cccc(Cl)c1)CCCC3 | inactive |
| C=CCN(CC=C)CC(O)CN(c1cc([N+](=O)[O-])ccc1OC)S(=O)(=O)c1ccccc1 (configuration not stated) | inconclusive [activator, single point] |
| Cc1ccc(-c2[nH]c3ccccc3c2C(C[N+](=O)[O-])c2ccco2)cc1 (configuration not stated) | inactive |
| CCCc1oc2ccc(NS(=O)(=O)c3ccc(OC)cc3)cc2c1C(=O)OCC | inconclusive [inhibitor, single point] |
| CCOC(=O)c1c(-c2ccccc2)csc1NC(=O)c1cc(-c2cccc(OC)c2)on1 | inconclusive [inhibitor, single point] |
| NC(=O)C1CCN(c2cc(Cl)ccc2[N+](=O)[O-])CC1 | inactive |
| CCCCOc1ccc(C(=O)NCCc2cccs2)cc1 | inconclusive [inhibitor, single point] |
| CCCCCOc1ccc2oc(=O)c3c(c2c1)CCCN3C(=O)CN1CCCC(C(=O)OCC)C1 (configuration not stated) | inconclusive [activator, single point] |
| Cc1ccc(OCCC(=O)Nc2ccc(F)c(Cl)c2)cc1 | inconclusive [inhibitor, single point] |
| O=C1Nc2c(ccc(Cl)c2Cl)C(=O)C1(F)c1ccccc1 (configuration not stated) | inconclusive [inhibitor, partial curve] |
| O=c1[nH]c(-c2ccccn2)nc(C(F)(F)F)c1Br | inactive |
| CN1[C@@H]2CC[C@H]1CC(OC(=O)c1c[nH]c3ccccc13)C2 (some centres not stated) | inconclusive [inhibitor, single point] |
| c1csc(CNc2nc(-c3cccs3)nc3ccccc23)c1 | inconclusive [inhibitor, partial curve] |
| Cc1ccccc1OCCC(=O)Nc1ccc(F)c(Cl)c1 | inconclusive [inhibitor, full curve, poor fit] |
| COc1ccc(-c2[nH]ncc2/C=N\NC(=O)c2ccc(C(C)(C)C)cc2)cc1OC | inconclusive [inhibitor, single point] |
| COc1cc(-c2nnc(SCC(=O)N3CCCc4ccccc43)o2)cc(OC)c1OC | inconclusive [activator, single point] |
| Cc1nc(NC(=O)c2ccc(Cl)cc2)sc1-c1csc(Nc2cccc(F)c2)n1 | inconclusive [activator, single point] |
| CCOC(=O)C1=C(c2ccc(OC)cc2)C(=O)c2ccccc2C1=O | inconclusive [inhibitor, single point] |

| Compound | Potency |
| --- | --- |
| COc1ccccc1NC1=C(NC(C)=O)C(=O)c2ccccc2C1=O | inconclusive [inhibitor, partial curve] |
| C/C(=N\Nc1ncc(Cl)cc1Cl)c1ccccn1 | inactive |
| COc1cccc(/C=C/C(=O)Nc2ccc(OC)nc2)c1 | inconclusive [activator, partial curve, poor fit] |
| OC1C2COC(O2)[C@H](O)C1O (some centres not stated) | inactive |
| Cc1cc(C(=O)NCCC2=CCCCC2)c(C)o1 | inconclusive [inhibitor, single point] |
| O=C(Nc1cccc(Cl)c1)Nc1nnc(CC2=CCCCC2)s1 | active: 11.2 µM |
| COc1ccc(-c2nc(SCC(=O)NC3CCCC3)c(-c3ccc(C)cc3)[nH]2)cc1OC | inconclusive [activator, full curve, poor fit] |
| CCCCn1c(/N=C/c2c[nH]c3ccccc23)nc2ccccc21 | inconclusive [inhibitor, partial curve] |
| Cc1noc(C)c1CSc1nc2ccccc2nc1NS(=O)(=O)c1ccc(Cl)cc1 | inactive |
| Cc1cccc(C(=O)NNS(=O)(=O)c2ccccc2)c1O | inconclusive [inhibitor, single point] |
| NC(=O)C1CCN(S(=O)(=O)c2ccc3c(c2)OCCO3)CC1 | inconclusive [inhibitor, partial curve, poor fit] |
| O=C(CSc1ncccn1)NC(=O)c1ccccc1 | inactive |
| CCOCc1nnc(NC(=O)COC)s1 | inconclusive [inhibitor, single point] |
| CCCc1noc(-c2ccc(NCc3ccc(C)cc3)c([N+](=O)[O-])c2)n1 | inactive |
| O=C(CCC1N=C2c3ccccc3N=C(SCc3ccccc3Cl)N2C1=O)NCc1ccco1 (configuration not stated) | inconclusive [inhibitor, single point] |
| O=[N+]([O-])c1cccc(Cl)c1CSc1ccccn1 | inactive |
| Cc1c(C(=O)Nc2cccc(C(F)(F)F)c2)oc2ccc(S(=O)(=O)N3CCOCC3)cc12 | inconclusive [inhibitor, partial curve] |
| O=C(Nc1ccc(Sc2ccc(Br)cc2)cc1)c1ccco1 | inconclusive [inhibitor, partial curve] |
| COc1ccc(-c2cc(=O)[nH][nH]2)cc1 | inconclusive [inhibitor, full curve] |
| Cc1ccc(N2C(=O)C(Cl)=C(Nc3c(C)n(C)n(-c4ccccc4)c3=O)C2=O)cc1 | inconclusive [inhibitor, single point] |
| N/C(=N\OS(=O)(=O)c1ccc(Br)cc1)c1ccncc1 | inconclusive [inhibitor, full curve] |
| Cn1c(=O)c2cc(C(=O)NC3CCCCCC3)sc2c2ccccc21 | inconclusive [inhibitor, partial curve] |
| COc1cccc(/C=N/Nc2ncnc3scc(-c4ccccc4)c23)c1O | inconclusive [activator, partial curve, poor fit] |

| Compound | Potency |
| --- | --- |
| N/C(=N\NC(=O)c1cccs1)c1cc2ccccc2oc1=O | inactive |
| COc1cc(OC)c(NC(=O)c2cn(C3CCCC3)c(=O)c3c2c2ccccc2n3C)cc1Cl | inactive |
| COc1cc(NC(=O)c2ccnnc2)cc(C(=O)Nc2cccc(C(F)(F)F)c2)c1 | inconclusive [inhibitor, partial curve] |
| CC(C)(C)c1csc(NNC(=O)c2ccc(Br)cc2)n1 | inconclusive [inhibitor, single point] |
| CCOc1ccc(-n2c(O)cc(=O)[nH]c2=O)cc1 | inconclusive [inhibitor, partial curve, poor fit] |
| Cc1noc(/C=C/c2cccs2)c1S(=O)(=O)N1CCC(C(=O)NCc2ccc(Cl)cc2)CC1 | inconclusive [inhibitor, partial curve] |
| Cc1cc(N(CCO)Cc2ccccc2)n2nc(-c3ccc(C(C)(C)C)cc3)nc2n1 | inactive |
| O=C(c1ccccc1O)N1CCOCC1 | inactive |
| O=C(CNCc1cccs1)Nc1cc(S(=O)(=O)N2CCCC2)ccc1Cl | inconclusive [activator, full curve, poor fit] |
| Cc1ccccc1NC(=O)c1ccc(Nc2c([N+](=O)[O-])cc([N+](=O)[O-])c3ccccc23)cc1 | inconclusive [activator, partial curve] |
| COC(=O)c1c(C)[nH]c(C)c1C(=O)c1ccccc1Cc1ccccc1 | inconclusive [inhibitor, single point] |
| CC(C(=O)N1CCCc2ccccc21)N1C(=O)c2ccccc2C1=O (configuration not stated) | inconclusive [inhibitor, single point] |
| Cn1cc(CNC(=O)c2cc(-c3ccccc3)nc3ccc(Br)cc23)cn1 | inconclusive [inhibitor, single point] |
| O=C(Nc1ccc(F)cc1)N(Cc1ccco1)Cc1cc2cc3c(cc2[nH]c1=O)OCO3 | inconclusive [inhibitor, single point] |
| COc1ccc2nc(SCC(=O)Nc3ccc4sc(C)nc4c3)c(C#N)cc2c1 | inconclusive [inhibitor, partial curve] |
| CN1/C(=c2/s/c(=C3/C(=O)N(c4ccccc4)NC3=Nc3ccccc3)n(C)c2=O)C(C)(C)c2ccccc21 | inconclusive [activator, full curve, poor fit] |
| O=C(NCCN1CCOCC1)c1cccnc1SCc1ccccc1Cl | inconclusive [inhibitor, single point] |
| COc1ccc2cc(C(c3nnnn3Cc3ccc(F)cc3)N3CCCCCC3)c(=O)[nH]c2c1 (configuration not stated) | inactive |
| CN(C)/N=C/c1c(O)ccc2ccccc12 | inactive |
| CCCCOc1ccc(-c2nnn(CC(=O)Nc3ncc(CC(=O)OCC)s3)n2)cc1 | inconclusive [inhibitor, single point] |
| Cc1ccn2cc(-c3cccc([N+](=O)[O-])c3)nc2c1 | inactive |
